The values that follow come from article PMC4336329 (PLoS ONE, 2015).

Each structure is given as a SMILES string. About 14,000 (4.5%) of roughly 310,000 compounds showed an effect of 50% or more. The effect is printed as a negative number. This is one part of the list.
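Also: peak tail current of the secondary pulse compared with the same well before compound.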

In the assay the target is human ether-à-go-go-related gene (hERG) potassium channel (human, UniProt Q12809). Nature of the assay: primary screen, population patch clamp on CHO cells stably expressing hERG.
Sequence of human ether-à-go-go-related gene (hERG) potassium channel (Q12809 whole entry, looked up): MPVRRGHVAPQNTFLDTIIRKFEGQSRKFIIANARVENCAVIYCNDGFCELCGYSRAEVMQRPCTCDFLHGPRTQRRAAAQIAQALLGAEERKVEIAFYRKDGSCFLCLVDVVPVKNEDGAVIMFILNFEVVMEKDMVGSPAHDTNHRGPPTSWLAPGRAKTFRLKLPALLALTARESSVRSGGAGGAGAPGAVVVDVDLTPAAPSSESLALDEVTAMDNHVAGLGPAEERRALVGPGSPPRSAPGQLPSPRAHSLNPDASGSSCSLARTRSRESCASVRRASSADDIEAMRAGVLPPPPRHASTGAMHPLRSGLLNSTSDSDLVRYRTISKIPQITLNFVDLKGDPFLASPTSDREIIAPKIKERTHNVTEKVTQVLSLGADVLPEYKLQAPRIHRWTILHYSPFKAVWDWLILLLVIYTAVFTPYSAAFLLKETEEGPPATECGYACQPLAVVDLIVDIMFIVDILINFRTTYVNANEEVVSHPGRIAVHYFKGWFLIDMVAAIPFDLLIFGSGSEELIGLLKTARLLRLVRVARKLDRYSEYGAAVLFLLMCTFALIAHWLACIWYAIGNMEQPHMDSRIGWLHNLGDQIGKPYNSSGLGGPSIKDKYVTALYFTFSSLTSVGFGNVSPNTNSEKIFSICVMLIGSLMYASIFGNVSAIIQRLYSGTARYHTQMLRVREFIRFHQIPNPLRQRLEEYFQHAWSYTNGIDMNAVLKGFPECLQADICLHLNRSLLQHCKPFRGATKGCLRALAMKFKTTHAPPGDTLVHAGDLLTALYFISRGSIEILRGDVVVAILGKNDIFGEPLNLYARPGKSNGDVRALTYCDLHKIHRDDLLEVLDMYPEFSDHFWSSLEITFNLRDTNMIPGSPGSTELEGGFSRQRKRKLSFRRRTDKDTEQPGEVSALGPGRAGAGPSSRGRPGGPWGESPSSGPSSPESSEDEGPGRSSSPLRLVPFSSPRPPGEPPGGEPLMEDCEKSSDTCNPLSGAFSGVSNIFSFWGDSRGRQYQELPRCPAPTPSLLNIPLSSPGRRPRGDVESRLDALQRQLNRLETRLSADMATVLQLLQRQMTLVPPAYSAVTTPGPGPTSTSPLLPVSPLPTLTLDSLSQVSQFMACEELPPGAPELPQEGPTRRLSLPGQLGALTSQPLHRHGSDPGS
As for `COc1ccc(CCNC(=S)NC2CCN(Cc3ccccc3)CC2)cc1`, the “hERG current change (%, negative = inhibition) at 10uM” value is on record as -36.9%.

Take `Cc1c(C)n2c(SCC(=O)N3CCC(C)CC3)nnc2[nH]c1=O`: the “hERG current change (%, negative = inhibition) at 10uM” value amounted to 15.3%.

As for `COc1ccc(NC(=O)CN(C)C(=O)Cc2ccc3c(c2)CCC3)cc1`, the “hERG current change (%, negative = inhibition) at 10uM” value was -0.102%.

`COc1ccc(N(C)C(=O)c2ccc3nc(-c4ccccc4)c(-c4ccccc4)nc3c2)cc1`: the “hERG current change (%, negative = inhibition) at 10uM” value was -4.99%.

On to `CC(=O)Nc1cccc(NC(=O)c2ccco2)c1`, for which the “hERG current change (%, negative = inhibition) at 10uM” value is given as -4.69%.

Consider `COc1ccc(/C=C/C(=O)OCC(=O)NCc2ccco2)c(OC)c1`, for which the “hERG current change (%, negative = inhibition) at 10uM” value amounted to 12.8%.

As for `COc1ccccc1Nc1ccc([N+](=O)[O-])cc1N`, the “hERG current change (%, negative = inhibition) at 10uM” value is listed as -6.93%.

In the case of `O=C(Nc1ccc(C(=O)N2CCC([NH+]3CCCC3)CC2)cc1)c1ccc(Br)o1.O=C(O)C(F)(F)F`, the “hERG current change (%, negative = inhibition) at 10uM” value was found to be 5.25%.

Consider `COc1cc2c(cc1OC)C1=NC(=O)CN1C(SCc1ccccc1C)=N2`, for which the “hERG current change (%, negative = inhibition) at 10uM” value is -3.63%.

Take `O=C(NC1CCCCC1)C1CCN(c2nccs2)CC1`: the “hERG current change (%, negative = inhibition) at 10uM” value is on record as 4.43%.

For `CC(=O)Nc1ccc(S(=O)(=O)Nc2cccc(-c3csc(C)n3)c2)cc1`, the “hERG current change (%, negative = inhibition) at 10uM” value was 2.34%.

In the case of `CCOC(=O)c1c(C)oc(/N=C/c2ccccc2O)c1C#N`, the “hERG current change (%, negative = inhibition) at 10uM” value is given as 7.61%.

Turning to `CCOC(=O)c1oc2ccccc2c1NC(=O)c1cccs1`, the “hERG current change (%, negative = inhibition) at 10uM” value was -2.11%.

Regarding `O=C(NC1CCCCC1)C(c1ccc2ncccc2c1)N(Cc1ccccc1)C(=O)c1cccs1` (centres unmarked), the “hERG current change (%, negative = inhibition) at 10uM” value was -60.4%.

In the case of `CCCC[C@@H](CNC)NC[C@H](Cc1ccc(O)cc1)NCCc1ccc(OCC)cc1`, the “hERG current change (%, negative = inhibition) at 10uM” value is listed as -53.7%.

Consider `CCOc1cc(CN2CCN(C(=O)CC(C)C)CC2)ccc1OC.O=C(O)C(=O)O`, for which the “hERG current change (%, negative = inhibition) at 10uM” value is reported as -10.5%.

`CCCNc1cc(=O)n(C)c(=O)n1C`: the “hERG current change (%, negative = inhibition) at 10uM” value is given as 33.8%.

On to `CC1Cc2ccccc2N1C(=O)CSc1nc2ccccc2o1` (centres unmarked), for which the “hERG current change (%, negative = inhibition) at 10uM” value was -7.78%.

As to `S=C1NCCOCCOCCOCCOCCN1`, the “hERG current change (%, negative = inhibition) at 10uM” value is recorded as -8.68%.

`COc1ccc2oc(C(=O)NCc3cc(OC)c(OC)cc3OC)c(C)c2c1`: the “hERG current change (%, negative = inhibition) at 10uM” value is recorded as 0.174%.

In the case of `CC(=O)c1c(C)[nH]c(C(=O)OCC(=O)Nc2ccc(C)cc2[N+](=O)[O-])c1C`, the “hERG current change (%, negative = inhibition) at 10uM” value is recorded as -21.3%.

Consider `CCOC(=O)CSc1ncnc2c1cnn2-c1ccccc1`, for which the “hERG current change (%, negative = inhibition) at 10uM” value is -4.32%.

For `O=[N+]([O-])c1ccccc1/C=N/n1c(-c2ccccc2)n[nH]c1=S`, the “hERG current change (%, negative = inhibition) at 10uM” value came to 9.49%.

As to `CC(C)c1nc(CNC(=O)C2CCC(=O)N(CCc3ccc(Cl)cc3)C2)no1` (centres unmarked), the “hERG current change (%, negative = inhibition) at 10uM” value is -27.6%.

Consider `CCN(CC)CCN(C(=O)c1ccc2c(c1)CCCC2)c1nc2ccc(F)cc2s1.Cl`, for which the “hERG current change (%, negative = inhibition) at 10uM” value is -1.94%.

Turning to `Cc1cccc(OCc2n[nH]c(=S)n2-c2ccccc2)c1`, the “hERG current change (%, negative = inhibition) at 10uM” value amounted to 10.1%.

For `COc1cccc(N2CCN(C(=O)c3[nH]c(C)c(C(C)=O)c3C)CC2)c1`, the “hERG current change (%, negative = inhibition) at 10uM” value came to 12.9%.

For the molecule `CCn1c(C(=O)N2CCC(Cc3ccccc3)CC2)cc2sccc21`, the “hERG current change (%, negative = inhibition) at 10uM” value was determined as 1.08%.

Regarding `CCCCCCSc1cc(-c2nc3ccc(C)cn3c2NCc2ccccc2)ccc1OC.O=C(O)C(F)(F)F`, the “hERG current change (%, negative = inhibition) at 10uM” value came out at 21.3%.

With `O=C(CCCc1cccs1)Nc1nc2c(s1)CCCC2`, the “hERG current change (%, negative = inhibition) at 10uM” value was -10.4%.

Regarding `O=C1CCC2=C(CCCC2=O)N1`, the “hERG current change (%, negative = inhibition) at 10uM” value turned out to be 30.2%.

As to `COc1ccc(-n2nc(C(=O)Nc3cc(OC)c(OC)c(OC)c3)c3ccccc3c2=O)c(OC)c1`, the “hERG current change (%, negative = inhibition) at 10uM” value is given as 3.69%.

On to `CCNc1nc(NC(C)(C)C)nc(N2CCCCC2)n1`, for which the “hERG current change (%, negative = inhibition) at 10uM” value is 8.83%.

In the case of `Cn1c(=O)n(C)c2cc(S(=O)(=O)N3CCOCC3)ccc21`, the “hERG current change (%, negative = inhibition) at 10uM” value is given as -0.98%.

For `Cc1cccc(Cc2c(C)nc3nc(SCC(=O)O)nn3c2C)c1`, the “hERG current change (%, negative = inhibition) at 10uM” value is 20.8%.

Turning to `Oc1c(C=C2N=c3ccccc3=N2)sc(=S)n1-c1ccc(F)cc1` [17505669], the “hERG current change (%, negative = inhibition) at 10uM” value came to 6.08%.

Regarding `COC(/C=C/Nc1ccc(C)c(C)c1)=C(C#N)C#N`, the “hERG current change (%, negative = inhibition) at 10uM” value was -25.9%.

With `CC(=O)Nc1ccc(S(=O)(=O)Nc2ccccc2C(=O)N2CCCCCC2)cc1`, the “hERG current change (%, negative = inhibition) at 10uM” value is 6.74%.

Consider `O=C(c1cnn2c(C(F)(F)F)cc(-c3cccs3)nc12)N1CCN(C(c2ccccc2)c2ccccc2)CC1`, for which the “hERG current change (%, negative = inhibition) at 10uM” value was found to be 13.3%.

`O=C(/C=C1\SC(=O)NC1=O)Nc1ccc(F)cc1`: the “hERG current change (%, negative = inhibition) at 10uM” value is reported as 3.18%.

With `CS(=O)(=O)N(CC(=O)N1CCN(c2ccccc2)CC1)c1ccc(Cl)c(C(F)(F)F)c1`, the “hERG current change (%, negative = inhibition) at 10uM” value is reported as -2.43%.

Take `COc1ccc(C2=NN(C(=O)CN3CCCCC3)C(c3ccc(OC)cc3)C2)cc1` (centres unmarked): the “hERG current change (%, negative = inhibition) at 10uM” value was -40.1%.

As to `CN(C)CC(C)(C)CNC(=O)CC1C(=O)NCCN1Cc1ccc(-c2ccccc2)cc1` (centres unmarked), the “hERG current change (%, negative = inhibition) at 10uM” value is reported as 2.56%.

Turning to `COc1ccc(C(=O)COC(=O)CCNS(=O)(=O)c2ccc(NC(C)=O)cc2)c(OC)c1`, the “hERG current change (%, negative = inhibition) at 10uM” value is reported as -30.5%.
